According to PubChem BioAssay AID1345083 (National Center for Advancing Translational Sciences (NCATS), 2018):
About 6,200 (6.6%) of roughly 94,000 compounds were called active. This list was built around the results that the source calls inconclusive (neither active nor inactive); the mix of calls is not that of the screen. Calls come from the whole dose curve; as a rule, active = well fitted inhibition curve with a large enough effect; inconclusive = small, poorly fitted or top-dose-only effect; inactive = flat fitted curve, though single readings scatter. Where the call is inconclusive, the potency comes from a doubtful curve fit.

Test: Cytotoxic Profiling in HEK 293 Cell Line of Diverse Libraries Using Quantitative High-Throughput Screening; note: nearly all actives have a fitted effect of over 60% in size
Conditions: HEK 293 viability, ATP luminescence (CellTiter-Glo), 48-72 h; activity change, negative = cytotoxicity: at 115 µM (top of the series) unless noted; series mostly up to 115 µM
Procedure, shortened: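 HEK 293 seeded at 250 cells/well receive compound via pintool. After 48 or 72 hr at 37 degree Celsius, 5% CO2 and 95% humidity, CellTiter-Glo is dispensed and luminescence read following 10 min at room temperature.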
% is set by controls: 0 for no effect and ±100 for the full control effect; potency is the fitted concentration of half-maximal effect; tags give direction and shape of the fitted curve.

Structure (SMILES)	Potency	activity change, negative = cytotoxicity	outcome
COc1ccccc1N1CCN(C(=O)CC[C@]23CC[C@](C)(O)C[C@H]2C(C)(C)C[C@@H]3NC(=O)c2cccnc2)CC1	inconclusive: 79.4 µM [inhibitor, partial curve, poor fit]	–	–
COc1cc(C(=O)N2CCCN(S(C)(=O)=O)c3ccccc32)cc(OC)c1OC	–	inactive: -13.2%	–
O=C1C2CN(Cc3ccc(F)cc3F)CCC2OCCN1Cc1ccccc1 (configuration not stated)	inconclusive: 100 µM [inhibitor, partial curve]	–	–
CN1CC2(CCN(C3CCN(Cc4ccccc4)CC3)CC2)CC1C(=O)N1CCOCC1 (configuration not stated)	inconclusive: 56.2 µM [inhibitor, partial curve, poor fit]	–	–
CCCCc1nc(Cl)c(CN2CCCC(COc3ccccc3C(=O)NC3CC3)C2)[nH]1 (configuration not stated)	inconclusive: 50.1 µM [inhibitor, partial curve, poor fit]	–	–
O=C1CC2(CCN(C(=O)c3ccc4c(c3)OCO4)CC2)Oc2ccccc2N1	inconclusive: 50.1 µM [inhibitor, partial curve, poor fit]	–	–
O=C(Nc1ccc(=O)n2c1[C@@H]1C[C@@H](CN(C(=O)COc3ccccc3)C1)C2)c1cncnc1	–	inactive: -5.51%	–
Cc1ccc(C(=O)N2CCCC3(CCNCC3)CC2)cc1Cl	inconclusive: 63.1 µM [inhibitor, partial curve, poor fit]	–	–
O=C(c1ccoc1)N1CCC(c2noc(COc3ccc(F)cc3)n2)CC1	inconclusive: 22.4 µM [inhibitor, partial curve, poor fit]	–	–
COC(=O)[C@@H]1Cc2c([nH]c3ccccc23)[C@H]2C[C@@H](NCCO)C[C@@H](c3ccccc3F)N21	active: 39.8 µM	–	–
Cc1nn(-c2ccccc2)c2c1C(C(C)C)N(C1CCN([S+](=O)([O-])c3cccs3)CC1)C2=O (configuration not stated)	inconclusive: 5.01 µM [inhibitor, full curve, poor fit]	–	–
O=C(c1c[nH]c(=O)c2ccccc12)N1C[C@H](CO)C[C@H](CN2CCCC2)C1	inconclusive: 63.1 µM [inhibitor, partial curve, poor fit]	–	–
N#Cc1cccc(CN2CCCC(c3nc(-c4cccnc4)no3)CCNC(=O)CC2)c1 (configuration not stated)	inconclusive: 79.4 µM [inhibitor, single point]	–	–
O=C(Nc1cccc(F)c1)Nc1cccc(-c2ccc(N3CCCCC3)nn2)c1	inconclusive: 8.91 µM [inhibitor, full curve, poor fit]	–	–
COCCn1ncc(N2CCCC(CC(=O)Nc3ccc(Cl)cc3)C2)cc1=O (configuration not stated)	inconclusive: 31.6 µM [inhibitor, partial curve, poor fit]	–	–
O=C(c1ccccc1OCC1CCCN(CCCc2ccccc2)C1)N1CCCC1 (configuration not stated)	–	inactive: -25%	–
Cc1ccc(C(=O)N[C@@H]2CN(Cc3ccncc3)C[C@H]2CN(C)C)c(C)c1	inconclusive: 39.8 µM [inhibitor, partial curve, poor fit]	–	–
Cc1ccccc1N(C)C1CN(Cc2cccnc2)C1	inconclusive: 100 µM [inhibitor, partial curve, poor fit]	–	–
COc1cccc(-c2cc(C(=O)N3CCN(Cc4ccccc4)CC3)c3cnn(C)c3n2)c1	inconclusive: 56.2 µM [inhibitor, partial curve, poor fit]	–	–
O=C(Nc1ccc(F)cc1)N[C@H]1[C@H](O)[C@@H](N2CCC(Cc3ccccc3)CC2)[C@@H]2OC[C@H]1O2	inconclusive: 79.4 µM [inhibitor, partial curve]	–	–
COc1ccccc1C(=O)N1CCC2(CC1)CC(c1cccnc1)=NO2	–	inactive: -22.7%	–

Structure (SMILES)	Potency	activity change, negative = cytotoxicity	outcome
Cc1ccccc1N1Cc2c(NCCCc3ccccc3)ncnc2N(C)CC1=O	inconclusive: 56.2 µM [inhibitor, partial curve, poor fit]	–	–
Cc1ccc(C(=O)N2CCC(Cc3noc(C4CCOCC4)n3)C2)s1 (configuration not stated)	inconclusive: 89.1 µM [inhibitor, single point]	–	–
CC(=O)Nc1cccc(-c2cn(C)c(=O)n3cc(COc4ccccc4)nc23)c1	inconclusive: 89.1 µM [inhibitor, partial curve]	–	–
Cc1nncn1C1CCN(S(=O)(=O)c2ccc(F)c(Cl)c2)CC1	–	inactive: -18.8%	–
Cc1ccc(-n2cccc2CC(=O)N2CCCC2)cc1	–	inactive: -20.5%	–
O=S(=O)(c1ccccc1F)N1CCC(F)(c2nc(Cc3ccccc3)no2)CC1	inconclusive: 50.1 µM [inhibitor, partial curve, poor fit]	–	–
O=C(COc1ccccc1)NC[C@H]1Cn2c(-c3ccc(Cl)cc3)cnc2CO1	active: 100 µM	–	–
O=C(NCc1ccc(F)cc1)C1CCN(C(=O)c2ccc(-c3cccs3)cc2)CC1	inconclusive: 31.6 µM [inhibitor, full curve]	–	–
COCC(=O)Nc1ccc2c(c1)CN(CCc1ccccc1)C(=O)C(C)O2 (configuration not stated)	inconclusive: 35.5 µM [inhibitor, partial curve, poor fit]	–	–
COCCNC(=O)[C@@H]1[C@H](c2cc(OC)c(OC)c(OC)c2)c2cc3c(cc2[C@H](O)[C@H]1CO)OCO3	inconclusive: 89.1 µM [inhibitor, single point]	–	–
Cc1noc(C)c1-c1cc2cc(C(C)C)oc2c(NC(C)C)n1	active: 89.1 µM	–	–
Cc1cc(Br)ccc1NC(=O)Cn1nc2c(cc1=O)CCCCC2	inconclusive: 50.1 µM [inhibitor, partial curve, poor fit]	–	–
COc1ccccc1CC(=O)N1CCC(Cc2nc(-c3ccccc3)no2)CC1	inconclusive: 56.2 µM [inhibitor, partial curve, poor fit]	–	–
O=C1NCN(Cc2ccc(Cl)cc2)C12CCN(Cc1cccnc1)CC2	inconclusive: 50.1 µM [inhibitor, partial curve, poor fit]	–	–
O=C(NCC1CCCCC1)C1CCc2nc(N3CCN(C(=O)C4CCC4)CC3)sc2C1 (configuration not stated)	–	inactive: -38.4%	–
O=C(Cc1ccccc1O)N1CCCC(CCc2c(F)cccc2F)C1 (configuration not stated)	inconclusive: 89.1 µM [inhibitor, single point]	–	–
O=C(C1CCCN1C(=O)Nc1ccccc1)N1CCC(N2CCCC2=O)CC1 (configuration not stated)	–	inactive: 4.01%	–
COCC(=O)Nc1ccc([C@@H](O)[C@H]2COCC(=O)N2Cc2ccc(F)cc2)cc1	–	–	inactive [at 172 µM]
O=C(c1nc(-c2ccc(Cl)cc2)c2ccccn12)N1CCOCC1	active: 112 µM	–	–
Cc1nc(-c2cccc(Cl)c2)n(Cc2ccc(F)c(F)c2)c(=O)c1CCO	inconclusive: 44.7 µM [inhibitor, partial curve, poor fit]	–	–
COc1ccc(CCc2nc3nccc(-c4ccco4)n3n2)cc1	inconclusive: 89.1 µM [inhibitor, single point]	–	–

Structure (SMILES)	Potency	activity change, negative = cytotoxicity	outcome
Cn1ncc2c(C(=O)NCc3cccnc3)cc(-c3ccccc3F)nc21	inconclusive: 50.1 µM [inhibitor, partial curve, poor fit]	–	–
COc1ccc(CC(=O)N2CCC(N3C(=O)c4c(c(C)nn4-c4ccccc4)C3C)C2)cc1 (configuration not stated)	inconclusive: 22.4 µM [inhibitor, partial curve, poor fit]	–	–
O=C(c1nnc(CNc2ccc(F)cc2)n1-c1ccccc1)N1CCC[C@@H]1C(c1ccccc1)c1ccccc1	inconclusive: 17.8 µM [inhibitor, full curve]	–	–
C=CCC1(CO)CCCN(CCS(=O)(=O)c2ccccc2)C1 (configuration not stated)	inconclusive: 89.1 µM [inhibitor, partial curve, poor fit]	–	–
COc1ccc(NC(=O)NCC2CCOCC2)cc1F	–	inactive: -0.746%	–
CCOC(=O)C1(Cc2ccccc2F)CCCN(C(=O)c2ccc(-n3ccnc3)cc2)C1 (configuration not stated)	inconclusive: 56.2 µM [inhibitor, partial curve, poor fit]	–	–
O=C(NC1CCCCC1)C1CCN(C(=O)c2ccc(-c3cncnc3)cc2)CC1	–	inactive: -3.76%	–
O=C(CCC1CCCC1)N1CCCC1c1nc(CCOCC2CCOCC2)no1 (configuration not stated)	inconclusive: 89.1 µM [inhibitor, single point]	–	–
COc1ccc(Cn2c(=O)c(C(=O)N3CCN([S+](=O)([O-])c4c(C)noc4C)CC3)nc3cccnc32)cc1	inconclusive: 89.1 µM [inhibitor, single point]	–	–
CC(C)c1noc(-c2cn(C3CCCN(C(=O)c4cccc5[nH]ccc45)C3)nn2)n1 (configuration not stated)	inconclusive: 50.1 µM [inhibitor, partial curve, poor fit]	–	–
COc1cccc(C(=O)NCC2CCCN(Cc3ccc(Cl)cc3)C2)c1OC (configuration not stated)	inconclusive: 35.5 µM [inhibitor, partial curve]	–	–
COc1ccc(Cn2c(=O)c(C(=O)NCc3ccc(F)cc3)nc3cccnc32)cc1	inconclusive: 89.1 µM [inhibitor, single point]	–	–
O=C(Nc1ccc(F)cc1F)N1CC(c2nnc(-c3ccncc3)o2)C2(CCOCC2)C1 (configuration not stated)	–	inactive: -21.1%	–
Cc1cc(CNC(=O)c2ccc3c(c2)n(CC2CC2)c(=O)n3C2CCCCC2)on1	–	inactive: -21.7%	–
COc1ccccc1C(O)c1nc(Nc2ccc(Cl)cc2F)n[nH]1 (configuration not stated)	inconclusive: 100 µM [inhibitor, partial curve, poor fit]	–	–
Cc1noc(C)c1S(=O)(=O)N1CCC(CCOc2ccccc2)C1 (configuration not stated)	inconclusive: 44.7 µM [inhibitor, partial curve, poor fit]	–	–
COc1ccc(N2CCN(c3nc(C(=O)N4CCC(C)CC4)cs3)CC2)cc1	active: 39.8 µM	–	–
CS(=O)(=O)N1CCOc2ccc(CCC(=O)NCCN3CCOCC3)cc2C1	–	inactive: -19%	–
COc1ccc(NC(=O)c2cc(-c3ccc[nH]3)n[nH]2)cc1OC	–	inactive: -20.3%	–
Cc1ccc(-c2ccc(O)cn2)c2cccnc12	inconclusive: 79.4 µM [inhibitor, partial curve, poor fit]	–	–
